Reference: the supplement of paper PMC11417369
The other results are listed elsewhere or left out.

Each sequence was assayed on PF3D7_0420300 AP2 domain 1 (GST-tagged) (assay: gcPBM binding intensity (ln(normalized median fluorescence intensity)); higher = stronger DNA binding).
Outline: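 GST-tagged P. falciparum DNA-binding domains, expressed in E. coli (about 25 μg on average), were applied for 1 h to an Agilent 4 × 180k array of primer-extended double-stranded 36-bp intergenic genomic probes plus negative controls. The binding buffer was 1× PBS with 1% milk, 0.2 mg/ml BSA, 0.5% salmon testes DNA and 0.03% Triton X-100. Bound protein was detected with Alexa488 anti-GST antibody and scanned at 488 nm. Binding intensity is the highest Masliner-normalised natural-log median intensity across replicate spots of either probe orientation.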

| Sequence | gcPBM binding intensity (ln) |
| --- | --- |
| CTTTGTAGTATATTAACACACAACTATTTATAATAT [CACACA_site3934] | 9.39 |
| ATTTTTAAGCATATCAAAAAAAAAAAAAAAATTAAT [CACACA_negctrl_site980] | 9.1 |
| TTACTAAAAATTATTAATAAATAATAATTATAAATT [GTGCAC_negctrl_site310] | 8.86 |
| TAAAAAGGAAAACACACACACACATATATATATATA [CACACA_site3588] | 9.9 |
| TTTCCAATTAGTTTTGCATGTTGAAAAAATGTTGGA [TGCATGCA_site1035] | 8.84 |
| TTATTATTAAGACACACACACAAAAAAAAAAAAAAA [CACACA_site6805] | 9.73 |
| TAGATACATACACGCACACACATATATAAATAAATA [CACACA_site6157] | 9.85 |
| AAAAAAAACAGACACACACACATACACATACATACA [CACACA_site2857] | 10.2 |
| TAATTATGTACTATTATACACACGTTTAATTGTAAA [CACACA_site206] | 9.29 |
| TTACGTATGTATTATGTTGTATATGAAATTAAAAAA [GTGCAC_negctrl_site292] | 8.97 |
| AATAATATATGGTGTACACAAAAGTATAAATAATTT [CACACA_site5338] | 9.56 |
| TATAAAAAAATAATAAATAAATAAAAAGATTTCTTT [TGCATGCA_negctrl_site122] | 8.51 |
| AATAAATTAAAACAGGTGCACTATATTACACACGCT | 9.53 |
| TAGATACAGAAACACACACACACATACATATATACA [CACACA_site3437] | 10.2 |
| AGAATTATTGTTAATGCATGTGGAAGTTAAAATATT [TGCATGCA_site188] | 9.33 |
| TTATGGAGAGTTATATGTACGAAAAATATGTATAAG [XGTACX_site515] | 9.31 |
| TATATAGTAATTTATTCACACAATTGGCACACCTCA [CACACA_site4679] | 9.42 |
| TATTTAAATTGTAAGTGTACATATATAAATGTAAAA [XGTACX_site1609] | 8.98 |
| TATAATATATATTTGTGTCCACAACATTTTTAATAT [XGTACX_site2089] | 9.08 |
| AGCCATTATAATTCTTGTACATAATATAGCTATTTT [XGTACX_site1723] | 9.47 |
| ACATATATATAATATATATTTTTCGTGTGGTGTCAC [CACACA_negctrl_site543] | 9.14 |
| GAGCACCAAAATATATGTACATATGATAAATGTGAA [XGTACX_site1130] | 9.18 |

| Sequence | gcPBM binding intensity (ln) |
| --- | --- |
| AATATATATATAGGATGTACACATAATTCAAATATA [XGTACX_site2755] | 9.4 |
| ATCATTGAAGTTAAAAATATAAAGTATTCAGAAGGG [XGTACX_negctrl_site560] | 9.34 |
| TTTTTTATTTTATTTTTTTCTGCTTATCCACATTAG [XGTACX_negctrl_site108] | 9.2 |
| TCACTTTTATAATATAATATTCTATATCTTATTTTT [GTGCAC_negctrl_site717] | 9.41 |
| TTGTGAATAACTAAGAAGAAAAAGATAAATATGTAT [TGCATGCA_negctrl_site388] | 9.19 |
| TATTCATGCATATACACACACATATATTTATATTTT [CACACA_site7786] | 9.78 |
| AATAATATTGAAATGTGTACGTATTTATATTTTATG [XGTACX_site8252] | 9.42 |
| TTTTGTTATATTCAATATTTATATATTATAAATATA [CACACA_negctrl_site1705] | 9.11 |
| TTTTTCTTTTTTACAGTGCATAAATATATGTATTGT [GTGCAC_site9399] | 9.31 |
| TATATAATAACATATGCATGCAAGTAATATAACCAA [TGCATGCA_site324] | 9.51 |
| TATAATATATATGTAACACACAAAAGTTATATACTT [CACACA_site2868] | 9.37 |
| ATATATTATATTTAAGTGCATTAATTAAAATGCTTA [GTGCAC_site9403] | 8.88 |
| CATTAATATATATATAGTACATATACACCTTCATTA [XGTACX_site8473] | 9.34 |
| AAAAAAAATCAGACAGGTACACATTCCATGTTCAAA [XGTACX_site5380] | 9.32 |
| TATGAAGTGCACAATACACACTAATTCTATATAAAT [CACACA_site7269] | 9.33 |
| CAATTAAAAAATAATACATGCATATAAATAGATATT [TGCATGCA_site427] | 9.39 |
| ATAATTAAATAAAAAAGTACACATACATCATAATGC [XGTACX_site7656] | 9.59 |
| AAAATAAATATAAAATGTACTTATATATATATATAT [XGTACX_site7803] | 9.19 |
| TAAGAATACGAAAGGTGTACACTGTGGAGACTTCAA [XGTACX_site2619] | 9.46 |
| TTTACACTTTTTTTTGTACACACTAATAAGATTAAC [CACACA_site9304] | 9.42 |
| ACATTACAATTATTATAATCAATATATAACCTCTAA [TGCATGCA_negctrl_site105] | 9.08 |
| AAAAAAATTTTTAAAAGTACATTAATATTAATATGT [XGTACX_site5177] | 9.16 |

| Sequence | gcPBM binding intensity (ln) |
| --- | --- |
| AAATATATTTTTTTTTGTACTCAAAAAGAAAAAAAA [XGTACX_site8540] | 8.7 |
| ATAAAATTATATACTCGTACACAAAAAAAAAAAATA [XGTACX_site6035] | 9.38 |
| AAAAATTGAATGATGTGTACTTAAAAGAATATAGAA [XGTACX_site6588] | 9.27 |
| ATTATAAATAAAATATGTACATATGTATAAATACAT [XGTACX_site4002] | 9.21 |
| AAAACACATACTATATGTACATATAATAATTTATAT [XGTACX_site4525] | 9.54 |
| TTCTGTATATAGTGTGCACACAATTAAAAAAAAAAA [CACACA_site8400] | 9.48 |
| AAGAAAAAAAAAAAAAAAAAAAAAAAAAAAAAAAAA [TGCATGCA_negctrl_site263] | 8.72 |
| TTGCACTCGTAAAAAGCACACATATAAAAACATTTA [CACACA_site7997] | 9.18 |
| TTAAAAATGTTATAATGTACATATAATATTTTATGA [XGTACX_site5954] | 8.79 |
| TTTATCCTTCTTTTGAGTACTCAAAGAGACCTATAA [XGTACX_site8050] | 8.83 |
| ATTATAAATATAAATATAAATATATATTGTTCCGCA [TGCATGCA_negctrl_site470] | 9.01 |
| TATATATATATATATATATATATTTTTATTATATAT [XGTACX_negctrl_site89] | 8.86 |
| GTTGTAAAAAGAAAATGTACGTAATAAATATATATA [XGTACX_site3081] | 9.33 |
| AATACTCCATTGTATAGTACATATATTTTTATTTAT [XGTACX_site3641] | 9.33 |
| AATAAAAAAAAAAATAATATATATGTATAAATATAT [CACACA_negctrl_site1561] | 9.31 |
| TATTTTTATTTATATACACACTTACATATTTATATT [CACACA_site7666] | 9.56 |
| AGAATTTATAAAAACTGTACATATTTTCCAGTTATA [XGTACX_site2848] | 9.15 |
| TAATGTACTTAAACCGCACACATATAAAAAAATAAA [CACACA_site8926] | 9.25 |
| TTATTTTAATTTTTGGTGCATATTCAAGTGTACCTT [GTGCAC_site9791] | 9.03 |
| TTTTGTAAAATTAATTTATTATACATATATATTTCT [GTGCAC_negctrl_site728] | 9.2 |
| TATTTACATATTTATATACACACTTTTGCGTGTCTG [CACACA_site1110] | 9.42 |
| AAATAAAATACAATATGATAAAATGTTATCATATAT [CACACA_negctrl_site538] | 9.33 |

| Sequence | gcPBM binding intensity (ln) |
| --- | --- |
| ATAAATAATATAAATACACACTAAAAAAGATATATA [CACACA_site6397] | 9.69 |
| AATAAAAGGAATAATTGTACATAATGATTATACGTT [XGTACX_site7548] | 9.4 |
| ATTATATTTCAATTATGTACATATAAAATGAATAAA [XGTACX_site4204] | 9.08 |
| TTTTTTTTTTTTTTTTTTTTCTTCATTTAATTTATA [GTGCAC_negctrl_site17] | 8.31 |
| AATTTTCATTTTAGAAGTACACACAAAAAATAAAAT [XGTACX_site4426] | 9.46 |
| TTTTCATGTTTTTTTCTTTATTTTTTTTTTTTTTTT [GTGCAC_negctrl_site511] | 9.43 |
| TTTTTTTATTATTATTGTACAAGGCCTTAGGTGATT [XGTACX_site5050] | 8.96 |
| TACTTAATTATAAGGACATGCACAAAAGGAATTATT [TGCATGCA_site468] | 9.36 |
| CATATTGTCATTCTGGTGCACTTTTTTTTTTTTTTT | 9.52 |
| ATATAATATAACAATACGCACACGTATACAAAAAAA [CACACA_site3151] | 9.5 |
| AGGAAATGTTTATATACATGCATAATTAAATATAAT [TGCATGCA_site672] | 9.24 |
| ATGTAATCATTTTCGACTTTTTTTTTTTTTTTTTTT [CACACA_negctrl_site1132] | 9.26 |
| TTTTTAATTAATCTTATAAATATTTATAAATATATA [CACACA_negctrl_site1485] | 8.84 |
| ATAAAATGCGCAAACACACACAAAAAAAAGATATAT [CACACA_site6875] | 10 |
| TAAATATTATTTCATAGTACTTTTATTATTGATATA [XGTACX_site5566] | 9.18 |
| TTTTGTAGTTTATAAATAAAAGAGAATATGGTGCTT [CACACA_negctrl_site413] | 9.22 |
| TAAATAAATATATATACACACATATATATATATATA [CACACA_site598] | 9.21 |
| CAATTTATAAAGAAAACACACATATACATATATACA [CACACA_site1260] | 9.58 |
| TATTAAACAAATTATGCAAAAATAAATCAATATGTT [CACACA_negctrl_site171] | 9.42 |
| ATTATTTTATAATTCACACATAAATAAAAAAAAAAT [CACACA_site5290] | 9.24 |
| TTAGGAAGCTCACAAAATAAAGTGAAAAGAAGAAAA [XGTACX_negctrl_site572] | 9.1 |
